About 60 (0.1%) of roughly 46,000 compounds were called active. Another 3% or so got no clear call; they are omitted. Calls come from the whole dose curve; as a rule, active = well fitted inhibition curve with a large enough effect; inconclusive = small, poorly fitted or top-dose-only effect; inactive = no such curve, though single readings can be large or run the other way. The list shows a part of the results.
Assay: Primary qHTS assay for Inhibitors of ovarian cancer metastasis using an organotypic tumor microenvironment (TME) model.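 For activity change, negative = inhibition: plate controls were DMSO wells for no effect and tomatine positive control wells for full effect.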 Note: nearly all actives have a fitted effect of over 65% in size.
Settings: SKOV3ip1-GFP adhesion/invasion on 3D omental model, fluorescence; series mostly up to 45.8 µM; activity change, negative = inhibition: at the top concentration
Method in brief: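 qHTS, 4-pt dose (0.36-46 umol/L); SKOV3ip1-GFP, 1,200 cells/well, no FBS; primary omental fibroblast/mesothelial co-culture 48 h pre-grown; 2 h RT + 16 h 37 C; PBS wash, 4% PFA; GFP count 488/509 nm.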

Compound	activity change, negative = inhibition	outcome
Cc1csc2nc(COc3ccc(NC(=O)COc4ccccc4F)cc3)cc(=O)n12	inactive: -12.9%	
COc1ccccc1Cn1c(CNS(=O)(=O)c2ccc3c(c2)CCCC3)nc2cccnc21	inactive: 25.2%	
Fc1ccc(Nc2nc3nonc3nc2Nc2cccc(C(F)(F)F)c2)cc1	inactive: -2.9%	
CCCCc1nn2c(=O)cc(COC(=O)c3ccc(NC(=O)c4cccs4)cc3)nc2s1		inactive
O=C(Cn1c(=O)n(-c2ccc(Cl)cc2)c(=O)c2c3c(sc21)CCC3)c1ccc(F)cc1	inactive: 0.646%	
CCN1CCSc2ccc(C(=O)NCc3cccc(F)c3)cc21		inactive
CCCCCOC(=O)CSc1nc2sc3c(c2c(=O)n1Cc1ccccc1)CC(C)(C)OC3	inactive: 17%	
CC(C)(C)C1CCc2c(sc(NC(=O)Cn3nnc(-c4cccc(C(F)(F)F)c4)n3)c2C#N)C1 (configuration not stated)		inactive
Cn1c(CNC(=O)CSc2n[nH]c(-c3ccccc3)n2)nc2ccccc21	inactive: -3.4%	
CCC(Sc1nc2c(sc3ccccc32)c(=O)n1CCCC(=O)NC1CCCC1)C(=O)Nc1cccc(OC)c1 (configuration not stated)	inactive: 2.06%	
CC(C)CC(=O)N1CC(=O)Nc2ccc(F)cc2C1c1ccccc1 (configuration not stated)	inactive: -1.82%	
COc1cccc(CNC(=O)CCc2nnc3n(CC(C)C)c(=O)c4ccccc4n23)c1		inactive
Cc1ccc(NC(=O)CSc2nnc3[nH]c(=O)cc(C)n23)cc1Cl	inactive: -5.83%	
CC(C)OCCCn1c(SCC(=O)Nc2ccc(F)cc2)nc2c(sc3ccccc32)c1=O	inactive: 17.2%	
NCCCC(N)(C(=O)O)C(F)F (configuration not stated)	inactive: 5.36%	
Cc1ccccc1NCc1cccn1-c1nnc(N2CCOCC2)s1		inactive
O=[N+]([O-])c1cc(-c2nc(-c3ccccc3)no2)ccc1N1CCCC1	inactive: -4.89%	
O=C(CSc1nc(-c2ccccc2)[nH]c1-c1ccccc1)Nc1ccc2c(c1)OCO2	inactive: -12%	
Cc1cccc(Nc2nc(-c3ccccc3)c3cc(C)ccc3n2)c1	inactive: 3.17%	
Cc1ccc(-c2nc3ccccc3o2)cc1NC(=O)c1cccc2c(Cl)cccc12	inactive: 3.65%	
CCC(=O)N1c2ccccc2CC1C(=O)NCCN1CCN(c2cccc(C)c2C)CC1 (configuration not stated)	inactive: 0.133%	
Cc1nc2sccn2c(=O)c1S(=O)(=O)Nc1ccc(N2CCN(S(C)(=O)=O)CC2)cc1	inactive: -0.696%	
CSc1ccc(CCNC(=O)CCn2c(=O)c3cccn3c3cccnc32)cc1	inactive: 10.9%	
CCOc1ccc(-c2cc3c(=O)n(CC(=O)NCc4ccc(OC)cc4)ccn3n2)cc1		inactive
CCS(=O)(=O)N1CCc2cc(C(=O)Nc3cccc(C)c3C)ccc21	inactive: -2.26%	

Compound	activity change, negative = inhibition	outcome
CCCc1ccc(OC(=O)CSc2nnc(-c3cccs3)o2)cc1	inactive: -10.6%	
O=C(Nc1ccc(F)cc1)C1CCN(c2nc3ccccc3n3cccc23)CC1	inactive: -7.44%	
CCOC(=O)C1CCCN(C(=O)c2c(C)nn(-c3ccc(F)cc3)c2-n2cccc2)C1 (configuration not stated)	inactive: 25.6%	
COc1ccc(NC(=O)c2cc3c(=O)n(C)c4ccccc4c3s2)cc1Cl	inactive: -4.04%	
Cc1ccc(OCCSc2nc3ccc(NC(=O)c4ccc5c(c4)OCO5)cc3s2)cc1	inactive: 6.37%	
O=C(CCn1cccn1)NCc1ccc(Cl)cc1	inactive: 8.16%	
CCOC(=O)C(CC)Sc1ncnc2sc3c(c12)CCCC3 (configuration not stated)	inactive: -9.8%	
Cc1nc(-n2nc(C)c(Cc3ccccc3Cl)c2C)sc1C(=O)N1CCC(C)CC1	inactive: -5.55%	
CCOc1ccc(S(=O)(=O)N2CCC(N3CCN(Cc4ccc(F)cc4)C(=O)C3=O)CC2)cc1		inactive
CC(=O)c1cccc(NCc2ccccc2-c2nnc(-c3ccccc3)o2)c1	inactive: -14.1%	
Cc1cccc(NC(=O)CSc2nnc(N)s2)c1	inactive: 3.95%	
O=C(NC1(C(F)(F)F)NC(=O)N(CCc2ccccc2)C1=O)c1ccccc1Cl (configuration not stated)	inactive: 7.42%	
Cc1oc2ccc(O)c(CN3CCCCCC3)c2c1C(=O)Nc1cccc(Cl)c1C	inactive: -14.3%	
Cc1cccc(-n2ncc(C(=O)N3CCc4ccccc4C3)c2C2CCN(C(=O)OC(C)(C)C)CC2)c1	inactive: -32.8%	
Cc1ccc(S(=O)(=O)Nc2cc(Cl)ccc2C(=O)Nc2nc(-c3ccccc3)cs2)cc1	inactive: 3.52%	
COC(=O)c1nnn(CC(=O)Nc2cc(F)ccc2F)c1C(=O)OC	inactive: -1.62%	
CSc1ncc2c(n1)-c1ccccc1N(Cc1ccc(F)cc1)S2(=O)=O		inactive
O=C(NCCc1ccc(Cl)cc1)C(=O)NCC(c1ccco1)S(=O)(=O)c1cccs1 (configuration not stated)		inactive
O=C(C1CCN(S(=O)(=O)c2cccs2)CC1)N1CCN(c2cccc(Cl)c2)CC1	inactive: -13.7%	
CCSc1ncc(Cl)c(C(=O)N(Cc2ccccc2Cl)C2CCS(=O)(=O)C2)n1 (configuration not stated)	inactive: 3.55%	
CCN(CC)CCCNC(=O)c1ccc2c(c1)N(Cc1c(F)cccc1Cl)C(=O)c1ccccc1S2	inactive: -9.19%	
N#Cc1c[nH]n2c(NC3CCCCC3)c(-c3ccccc3F)nc12	inactive: -1%	
Cc1nn2c(=O)cc(COC(=O)c3cccc(NC(=O)COc4ccc(C)c(C)c4)c3)nc2s1	inactive: -9.01%	
COc1cccc(/C=C/c2nc(C#N)c(N3CCCCCC3)o2)c1	inactive: 3.82%	
Cc1ccc(NC(=O)CCCN2C(=O)COc3ccc(C)cc32)c(Cl)c1	inactive: 3.95%	

Compound	activity change, negative = inhibition	outcome
CCC1Oc2ccc(C)cc2N(CC(=O)NCCc2ccccc2)C1=O (configuration not stated)	inactive: 9.63%	
CCOC(=O)c1cnc2ccc(OC(F)(F)F)cc2c1Nc1ccccc1C(=O)O	inactive: -2.47%	
O=C(Nc1cccc(C(F)(F)F)c1)C1CCN(S(=O)(=O)c2cccc3nsnc23)CC1		inactive
COc1ccc(-c2cnc(C)o2)cc1S(=O)(=O)Nc1cccc(C(F)(F)F)c1		inactive
CCOC(=O)c1cnn2c(C(F)(F)F)cc(-c3ccc(Br)cc3)nc12		inactive
CCOc1ccc(CCNC(=O)CCn2c(=O)c3cccn3c3ccc(F)cc32)cc1	inactive: 3.09%	
Cc1ccc(NC(=O)Cn2nc(C(F)(F)F)c3c2CCC3)cc1C		inactive
CCc1ccccc1NS(=O)(=O)c1ccc2[nH]cc(C(=O)NC3CCCC3)c(=O)c2c1	inactive: 13.6%	
NC(=O)C1CCN(c2ncnc3c2cnn3-c2cccc(Cl)c2)CC1		inactive
COC(=O)Cc1c(C)c2ccc3c(c2oc1=O)CN(Cc1ccc(C)cc1)CO3	inactive: 0.177%	
COc1ccc(-n2nnnc2SCC(=O)NCCc2ccccc2)cc1	inactive: 7.77%	
Cc1ccccc1-c1noc(CSc2nc(-c3ccc(F)cc3)cc(=O)[nH]2)n1	inactive: -9.03%	
O=C(Nc1ccc(OCc2cc(=O)n3c4c(sc3n2)CCCC4)cc1)c1ccc(F)cc1	inactive: -1.45%	
CCOc1ccc(C(=O)NCCc2sc(-c3cccc(F)c3)nc2C)cc1OCC	inactive: 3.77%	
CCc1ccc(N2CC(c3nc4ccccc4n3Cc3ccccc3C)CC2=O)cc1 (configuration not stated)	inactive: -26.1%	
COc1ccc(-c2noc(-c3ccc(NCc4ccco4)c([N+](=O)[O-])c3)n2)cc1OC		inactive
Cc1cccc(CNC(=O)CCCN2C(=O)c3cccnc3Oc3ccccc32)c1	inactive: 1.49%	
COc1ccc(Cn2c(NCC(C)C)nc3c2c(=O)n(C)c(=O)n3C)cc1	inactive: 26.2%	
Cc1ccc(C2=NN(CCC(=O)NCCc3cccc(C)c3)C(=O)CC2)cc1	inactive: 5.07%	
CN(C(=O)CSc1nc2ccc(NC(=O)c3ccccc3)cc2s1)c1ccccc1	inactive: -22%	
O=C(CSc1oc(-c2cccs2)nc1S(=O)(=O)c1ccccc1)Nc1ccc(F)cc1	inactive: -12.1%	
COc1cc(CN(C(=O)c2ccc(C)cc2)c2ccccn2)cc(OC)c1OC	inactive: 2.23%	
Cc1ccc(-n2nc(C)c3c(C(=O)Nc4ccc(C)cc4Cl)cc(C)nc32)cc1	inactive: 11.4%	
CCOC(=O)CSc1nc(-c2ccc(OC)cc2)cc(C(F)(F)F)c1C#N	inactive: 8.82%	
CCOc1ccccc1/C=C/c1onc(C)c1S(=O)(=O)N1CCC(C(=O)N2CCCCC2)CC1	inactive: -5.7%	

Compound	activity change, negative = inhibition	outcome
COc1ccc(OC)c(CNC(=O)c2cnc(N(C)C)nc2)c1	inactive: 1.75%	
CC(=O)Nc1cccc(-c2nnc(SCC(=O)c3ccc([N+](=O)[O-])cc3)o2)c1	inactive: 3.93%	
COc1ccc(C(=O)CC2(O)C(=O)N(CCc3ccccc3)c3ccc(Br)cc32)cc1OC (configuration not stated)	inactive: -8.15%	
O=S(=O)(c1ccc2nc(Nc3ccc(Br)cc3F)ccc2c1)N1CCCC1	inactive: 1.72%	
Cc1ccccc1-c1noc(-c2ccc(NC3CCCC3)c([N+](=O)[O-])c2)n1	inactive: -12.7%	
COc1cccc(-n2c(=O)c3c4c(sc3n(Cc3ccccc3C#N)c2=O)CCCC4)c1	inactive: 3.55%	
COc1ccc(-n2nc(C(=O)N3CCN(c4cccc(C)c4)C(C)C3)c3c4ccccc4n(C)c3c2=O)cc1Cl (configuration not stated)	inactive: -12.1%	
O=C(Cn1nc2c(cc1=O)CCCC2)NCc1ccccc1		inactive
O=C(OCC1CCCO1)c1ccc2c(c1)N(Cc1c(F)cccc1Cl)C(=O)c1ccccc1S2(=O)=O (configuration not stated)		inactive
CCCCn1c(C2CC(=O)N(c3ccc(OCC)cc3)C2)nc2ccccc21 (configuration not stated)	inactive: 1.23%	
CCOc1ccc(OCC)c(NS(=O)(=O)c2ccc3c(c2)CCCN3C(C)=O)c1	inactive: 4.87%	
CCc1nnc(NC(=O)c2nc(SCc3ccc(F)cc3)ncc2Cl)s1	inactive: -3.66%	
O=C(Cn1cc(SCc2ccc(F)cc2)c2ccccc21)N1CCCC1	inactive: -1.91%	
CCN(CC)S(=O)(=O)c1ccc2c(c1)c(=O)c(C(=O)N1CCN(c3cc(C)ccc3C)CC1)cn2C		inactive
COc1ccc(S(=O)(=O)N2CCC(c3nnnn3-c3ccccc3)CC2)cc1OC	inactive: -2.97%	
CCC(C(=O)NC1CCCCC1)n1nc(C)c2sc3ccccc3c2c1=O (configuration not stated)	inactive: 6.4%	
Cc1ccc(Cl)cc1N1CCN(C(=O)c2cnc3c(-c4ccc(F)cc4)c(C)nn3c2C)CC1	inactive: 4.85%	
O=C(Nc1ccccc1C(F)(F)F)C1CCN(c2nnc(-n3cccc3)s2)CC1	inactive: -8.48%	
Cc1cccc(S(=O)(=O)c2cn(Cc3ccc(F)cc3)c3cc(N4CCOCC4)c(F)cc3c2=O)c1	inactive: -1.85%	
COCC(C)NC(=O)C1=CC(c2ccc3c(c2)OCO3)=NS(=O)(=O)N1C (configuration not stated)	inactive: -2.02%	
CCOCCn1c(=NC(=O)c2ccc3c(c2)OCCO3)sc2cc(OCC)ccc21	inactive: -8.3%	
Cc1cc(C)c(NC(=O)c2ccc3nc(C(C)C)oc3c2)c(C)c1	inactive: -18.9%	

Reference: PubChem BioAssay AID1963576 (National Center for Advancing Translational Sciences (NCATS), 2024)
